Source: the supplement of paper PMC4967469

Legend:
Experiment in all cases: Viability of human cancer cell lines after 72 h of drug (GDSC screen)
[1] = compound: C=CCNC1=C2C[C@@H](C)C[C@H](OC)[C@H](O)[C@@H](C)/C=C(\C)[C@H](OC(N)=O)[C@@H](OC)/C=C\C=C(/C)C(=O)NC(=CC1=O)C2=O [17-AAG]; conditions: top dose 1 µM
Protocol: (§1)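 Human cancer cell lines in 384-well plates, medium with 10% serum, drug for 72 h over a 256-fold dose range (nine 2-fold or five 4-fold steps up to the top dose). Adherent lines were fixed and stained with the nucleic acid dye Syto60, suspension lines read with resazurin; signal relative to control wells, capped at 0 and 100%. One two-parameter sigmoid per drug and line, fitted in a mixed model over all curves with the slope shared within a line.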

[2] = compound: CCc1cc(-c2n[nH]c(C)c2-c2ccc3c(c2)OCCO3)c(O)cc1O [CCT018159]; conditions: top dose 10 µM; top dose inferred
Protocol: as §1

[3] = compound: CN(C)Cc1cccc(N=C(c2ccccc2)c2c(O)[nH]c3cc(C(=O)N(C)C)ccc23)c1 [BIX02189]; conditions: top dose 20 µM; top dose inferred
Protocol: as §1

[4] = compound: COC(=O)CNC(=O)C(=O)OC [Dimethyloxalylglycine]; conditions: top dose 4000 µM; top dose inferred
Protocol: as §1

[5] = compound: COc1cccc2c1C(=O)c1c(O)c3c(c(O)c1C2=O)C[C@@](O)(C(=O)CO)C[C@@H]3O[C@H]1C[C@H](N)[C@H](O)[C@H](C)O1 [Doxorubicin]; conditions: top dose 1.024 µM
Protocol: as §1

[6] = compound: COc1cccc2cc(-c3nc([C@H]4CC[C@H](C(=O)O)CC4)n4ncnc(N)c34)[nH]c12 [OSI-027]; conditions: top dose 20 µM
Protocol: as §1

[7] = compound: CS(=O)(=O)c1ccc(C(=O)Nc2ccc(Cl)c(-c3ccccn3)c2)c(Cl)c1 [Vismodegib]; conditions: top dose 10 µM; top dose inferred
Protocol: as §1

[8] = compound: Cc1cnc(Nc2ccc(F)cc2Cl)nc1-c1c[nH]c(C(=O)N[C@H](CO)c2cccc(Cl)c2)c1 [VX-11e]; conditions: top dose 5.12 µM; top dose inferred
Protocol: as §1

[9] = compound: Cc1cnc(Nc2ccc(OCCN3CCCC3)cc2)nc1Nc1cccc(S(=O)(=O)NC(C)(C)C)c1 [TG101348]; conditions: top dose 10.24 µM
Protocol: as §1

[10] = compound: O=C(c1ccc(C(=O)N2CCC(N3CCCC3)CC2)c(Nc2ccccc2)c1)N1CCC(N2CCCC2)CC1 [UNC1215]; conditions: top dose 1 µM; top dose inferred
Protocol: as §1

Row | Cell Line | AUC [1] | IC50 [1] [µM] | AUC [2] | IC50 [2] [µM] | AUC [3] | IC50 [3] [µM] | AUC [4] | IC50 [4] [µM] | AUC [5] | IC50 [5] [µM] | AUC [6] | IC50 [6] [µM] | AUC [7] | IC50 [7] [µM] | AUC [8] | IC50 [8] [µM] | AUC [9] | IC50 [9] [µM] | AUC [10] | IC50 [10] [µM]
1 | NCI-H209 (small cell lung carcinoma, suspension) | 0.986 | > 1 | 0.957 | > 10 | 0.868 | > 20 | 0.705 | 993 | 0.446 | 0.0451 | 0.523 | 1.45 | 0.982 | > 10 | 0.973 | > 5.12 | 0.822 | 6.55 | 0.973 | > 1
2 | NCI-H211 (small cell lung carcinoma, adherent) | 0.875 | 0.933 | 0.984 | > 10 | 0.925 | > 20 | 0.544 | 328 | 0.448 | 0.0463 | 0.172 | 0.132 | 0.979 | > 10 | 0.965 | > 5.12 | 0.649 | 1.63 | 0.967 | > 1
3 | NCI-H322M (lung adenocarcinoma, suspension) | 0.915 | > 1 | 0.94 | > 10 | 0.925 | > 20 | 0.862 | > 4000 | 0.985 | > 1.02 | 0.894 | > 20 | 0.98 | > 10 | 0.93 | > 5.12 | 0.848 | > 10.2 | 0.979 | > 1
4 | NCI-H358 (lung adenocarcinoma, adherent) | 0.75 | 0.359 | 0.9 | > 10 | 0.887 | > 20 | 0.39 | 121 | 0.415 | 0.0364 | 0.436 | 0.821 | 0.983 | > 10 | 0.793 | 2.64 | 0.73 | 3.15 | 0.982 | > 1
5 | NCI-H520 (lung squamous cell carcinoma, adherent) | 0.734 | 0.297 | 0.946 | > 10 | 0.733 | 5.91 | 0.601 | 478 | 0.735 | 0.308 | 0.232 | 0.202 | 0.987 | > 10 | 0.957 | > 5.12 | 0.719 | 2.73 | 0.986 | > 1
6 | NCI-H526 (small cell lung carcinoma, suspension) | 0.963 | > 1 | 0.925 | > 10 | 0.942 | > 20 | 0.618 | 520 | 0.455 | 0.0485 | 0.377 | 0.583 | 0.971 | > 10 | 0.976 | > 5.12 | 0.692 | 2.14 | 0.988 | > 1
7 | NCI-H596 (lung adenocarcinoma, adherent) | 0.875 | > 1 | 0.871 | > 10 | 0.927 | > 20 | 0.898 | > 4000 | 0.571 | 0.106 | 0.644 | 3.53 | 0.977 | > 10 | 0.974 | > 5.12 | 0.798 | 6.63 | 0.972 | > 1
8 | NCI-H647 (non-small cell lung carcinoma, adherent) | 0.344 | 0.0225 | 0.841 | 7.45 | 0.9 | > 20 | 0.478 | 217 | 0.635 | 0.154 | 0.373 | 0.549 | 0.981 | > 10 | 0.96 | > 5.12 | 0.64 | 1.59 | 0.983 | > 1
9 | NCI-H661 (large cell lung carcinoma, adherent) | 0.72 | 0.303 | 0.875 | > 10 | 0.98 | > 20 | 0.801 | 2440 | 0.454 | 0.0467 | 0.724 | 6.25 | 0.981 | > 10 | 0.918 | > 5.12 | 0.874 | > 10.2 | 0.967 | > 1
10 | NCI-H727 (lung carcinoid, adherent) | 0.752 | 0.555 | 0.953 | > 10 | 0.963 | > 20 | 0.775 | 2830 | 0.415 | 0.0321 | 0.663 | 4.8 | 0.964 | > 10 | 0.744 | 2.61 | 0.865 | > 10.2 | 0.965 | > 1
11 | NCI-H1048 (small cell lung carcinoma, adherent) | 0.748 | 0.295 | 0.869 | 7.7 | 0.822 | 10.1 | 0.76 | 1280 | 0.579 | 0.103 | 0.222 | 0.214 | 0.985 | > 10 | 0.957 | > 5.12 | 0.856 | 6.97 | 0.987 | > 1
12 | NCI-H1092 (small cell lung carcinoma, suspension) | 0.984 | > 1 | 0.912 | > 10 | 0.954 | > 20 | 0.719 | 1050 | 0.833 | 0.67 | 0.717 | 5.19 | 0.987 | > 10 | 0.99 | > 5.12 | 0.942 | > 10.2 | 0.983 | > 1
13 | NCI-H1417 (small cell lung carcinoma, suspension) | 0.981 | > 1 | 0.893 | > 10 | 0.944 | > 20 | 0.73 | 1300 | 0.746 | 0.379 | 0.752 | 7.74 | 0.976 | > 10 | 0.942 | > 5.12 | 0.832 | 8.36 | 0.972 | > 1
14 | NCI-H1435 (lung adenocarcinoma, semi-adherent) | 0.978 | > 1 | 0.981 | > 10 | 0.981 | > 20 | 0.689 | 793 | 0.818 | 0.5 | 0.993 | > 20 | 0.988 | > 10 | 0.992 | > 5.12 | 0.993 | > 10.2 | 0.99 | > 1
15 | NCI-H1693 (lung adenocarcinoma, adherent) | 0.959 | > 1 | 0.932 | > 10 | 0.829 | > 20 | 0.72 | 1570 | 0.682 | 0.283 | 0.584 | 2.43 | 0.947 | > 10 | 0.914 | > 5.12 | 0.85 | > 10.2 | 0.966 | > 1
16 | NCI-H1703 (lung adenocarcinoma, adherent) | 0.361 | 0.0237 | 0.938 | > 10 | 0.914 | > 20 | 0.75 | 1570 | 0.622 | 0.15 | 0.426 | 0.748 | 0.973 | > 10 | 0.979 | > 5.12 | 0.572 | 1.05 | 0.979 | > 1
17 | NCI-H1836 (small cell lung carcinoma, suspension) | 0.987 | > 1 | 0.985 | > 10 | 0.972 | > 20 | 0.628 | 584 | 0.9 | > 1.02 | 0.497 | 1.23 | 0.988 | > 10 | 0.988 | > 5.12 | 0.918 | > 10.2 | 0.986 | > 1
18 | NCI-H1838 (lung adenocarcinoma, adherent) | 0.852 | > 1 | 0.963 | > 10 | 0.979 | > 20 | 0.926 | > 4000 | 0.755 | 0.417 | 0.955 | > 20 | 0.964 | > 10 | 0.969 | > 5.12 | 0.923 | > 10.2 | 0.985 | > 1
19 | NCI-H1869 (lung squamous cell carcinoma, adherent) | 0.632 | 0.153 | 0.94 | > 10 | 0.944 | > 20 | 0.577 | 417 | 0.904 | > 1.02 | 0.783 | 9.58 | 0.985 | > 10 | 0.96 | > 5.12 | 0.831 | 7.67 | 0.982 | > 1
20 | NCI-H2009 (lung adenocarcinoma, adherent) | 0.665 | 0.185 | 0.954 | > 10 | 0.952 | > 20 | 0.531 | 305 | 0.494 | 0.0616 | 0.966 | > 20 | 0.97 | > 10 | 0.9 | > 5.12 | 0.981 | > 10.2 | 0.962 | > 1
21 | NCI-H2023 (lung adenocarcinoma, adherent) | 0.624 | 0.15 | 0.837 | 9.22 | 0.972 | > 20 | 0.648 | 717 | 0.733 | 0.355 | 0.909 | > 20 | 0.902 | > 10 | 0.973 | > 5.12 | 0.966 | > 10.2 | 0.977 | > 1
22 | NCI-H2081 (small cell lung carcinoma, suspension) | 0.965 | > 1 | 0.969 | > 10 | 0.989 | > 20 | 0.699 | 940 | 0.704 | 0.25 | 0.801 | 10.4 | 0.981 | > 10 | 0.987 | > 5.12 | 0.9 | > 10.2 | 0.988 | > 1

IC50 is the fitted dose that halves viability relative to control wells, and lower means more sensitive; a limit (>, <) means that the fit lies beyond the doses tested. The AUC spans the tested range (256-fold, ending at the top dose) of the same fit; values near 1 show little effect. For some assays here: An inferred top dose was calculated from the reported fits.
